Some of the results follow.

B1: PhoQ; a variant is named by its letters at X, in order, P23837 (parent)
chain: MKKLLRLFFPLSLRVRFLLATAAVVLVLSLAYGMVALIGYSVSFDKTTFRLLRGESNLFYTLAKWENNKLHVELPENIDKQSPTMTLIYDENGQLLWAQRDVPWLMKMIQPDWLKSNGFHEIEADVNDTSLLLSGDHSIQQQLQEVREDDDDAEMTHSVAVNVYPATSRMPKLTIVVVDTIPVELKSSYMVWSWFIYVLSANLLLVIPLLWVAAWWSLRPIEALAKEVRELEEHNRELLNPATTRELTSLVRNLNRLLKSERERYDKYRTTLTDLTHSLKTPLXXLQXXLRSLRSEKMSVSDAEPVMLEQISRISQQIGYYLHRASMRGGTLLSRELHPVAPLLDNLTSALNKVYQRKGVNISLDISPEISFVGEQNDFVEVMGNVLDNACKYCLEFVEISARQTDEHLYIVVEDDGPGIPLSKREVIFDRGQRVDTLRPGQGVGLAVAREITEQYEGKIVAGESMLGGARMEVIFGRQHSAPKDE

The experiment covers variants of B1. As to the kind of experiment: enrichment ratio after two sorts for PhoP signalling (ratio (wild type AVST 3.29)); higher = more functional. Particulars: with PhoP (E. coli).
For PVWR, the enrichment ratio was at most 0.25. As for NSDY, the figure is at most 0.25; as for ISHP, at most 0.25. IMWN: the enrichment ratio is at most 0.25. To WIFW belongs at most 0.25; to PVGE, at most 0.25. To NTQN belongs at most 0.25. In the case of NKFS, the enrichment ratio was at most 0.25. Regarding RIYL, the enrichment ratio is at most 0.25. For the variant QIFK, the enrichment ratio was at most 0.25. As for KCQP, the figure is at most 0.25; as for SGCS, 6.16; as for HWSS, at most 0.25. Consider ISII, for which the enrichment ratio is at most 0.25.

As to TKKL, the enrichment ratio is 1.46. As for WRNV, the figure is at most 0.25; as for SWIR, at most 0.25; as for MDCH, at most 0.25. To MQLE belongs 2.79; to SSTR, at most 0.25.

As to RTCH, the enrichment ratio is at most 0.25.

As for ILWY, the enrichment ratio was at most 0.25. TCWV: the enrichment ratio amounted to 2.38. Regarding IQCD, the enrichment ratio is at most 0.25. As to DCRS, the enrichment ratio is at most 0.25.

As to DLSY, the enrichment ratio is at most 0.25. As for HRTD, the figure is at most 0.25; as for DLCQ, at most 0.25.

For the variant DYGK, the enrichment ratio was at most 0.25.

As to GTRA, the enrichment ratio was at most 0.25. As to ISGA, the enrichment ratio was at most 0.25. With APTR, the enrichment ratio is at most 0.25. As for EMIH, the figure is at most 0.25.

With TSIQ, the enrichment ratio is at most 0.25.

Turning to KEDN, the enrichment ratio was at most 0.25. PECF: the enrichment ratio is at most 0.25.

For the variant NKLF, the enrichment ratio was 1.02. Take TAFC: the enrichment ratio is at most 0.25.

For IILS, the enrichment ratio was at most 0.25.

In the case of PDWF, the enrichment ratio was at most 0.25.

With QRCM, the enrichment ratio is at most 0.25.

For NSNT, the enrichment ratio is at most 0.25. As for YRST, the figure is at most 0.25; as for SKMW, at most 0.25. As for RYQV, the figure is at most 0.25; as for WPFG, at most 0.25. As for MYQC, the figure is at most 0.25. For the variant MFAF, the enrichment ratio was at most 0.25.

For the variant FEQG, the enrichment ratio is at most 0.25. Regarding FAWY, the enrichment ratio is at most 0.25. To YVKP belongs at most 0.25. As for FEAH, the figure is at most 0.25; as for FPLG, at most 0.25. As for RIEL, the figure is at most 0.25; as for IFKI, 2.22. As to ATLQ, the enrichment ratio is 11.5.

Consider GHLL, for which the enrichment ratio was at most 0.25. With FGHY, the enrichment ratio was at most 0.25.

LYQS: the enrichment ratio is at most 0.25. As for WMGP, the figure is at most 0.25; as for ARPW, at most 0.25; as for IMCK, at most 0.25.

On to QVAQ, for which the enrichment ratio is at most 0.25.

For the variant ILCG, the enrichment ratio was at most 0.25. As for ASSM, the figure is 19.3.

Regarding KPIC, the enrichment ratio was at most 0.25.

FNEA: the enrichment ratio is at most 0.25. Consider PKEY, for which the enrichment ratio was at most 0.25. As for HNRH, the figure is at most 0.25. Take WASH: the enrichment ratio is at most 0.25. To GQDA belongs at most 0.25; to PMWV, at most 0.25. Consider FSAW, for which the enrichment ratio is at most 0.25.

RSQP: the enrichment ratio was at most 0.25. For AIVG, the enrichment ratio is 7.78. As for AMQV, the enrichment ratio is at most 0.25. For the variant KHFT, the enrichment ratio is at most 0.25. For HWKQ, the enrichment ratio was at most 0.25.

For LQEI, the enrichment ratio is at most 0.25. Consider KYGD, for which the enrichment ratio was at most 0.25. In the case of TWAF, the enrichment ratio was at most 0.25. As for LRHN, the figure is at most 0.25; as for VFHS, at most 0.25. As for YYIV, the figure is at most 0.25. MCRI: the enrichment ratio is at most 0.25. Consider HFGP, for which the enrichment ratio was at most 0.25. To ADMC belongs 2.74; to KGDQ, 7.26. To ITCM belongs 1.

With PYWL, the enrichment ratio was at most 0.25.

As to FDST, the enrichment ratio is at most 0.25.

As to QDTV, the enrichment ratio was at most 0.25. As for FFFK, the figure is at most 0.25; as for IVVT, at most 0.25.

As to REDC, the enrichment ratio is at most 0.25. Take VTWY: the enrichment ratio was at most 0.25. To PINR belongs at most 0.25; to GVFY, at most 0.25. As for ANNK, the figure is 0.253; as for SVCH, 12.5; as for WKCH, at most 0.25. With VACK, the enrichment ratio was at most 0.25. As for TCAG, the figure is 12.5; as for EQLP, at most 0.25. Take LAED: the enrichment ratio was at most 0.25. As to NPPN, the enrichment ratio is at most 0.25. As to IFQN, the enrichment ratio is at most 0.25. With GSWE, the enrichment ratio is at most 0.25.

Consider VTWQ, for which the enrichment ratio is at most 0.25. To SMHS belongs at most 0.25; to KPCW, at most 0.25; to NQLN, at most 0.25. As for MSHN, the figure is at most 0.25; as for SFAS, at most 0.25; as for ICLA, at most 0.25. Turning to NLNC, the enrichment ratio was at most 0.25.

Consider LLNP, for which the enrichment ratio was at most 0.25. For the variant QSRD, the enrichment ratio was at most 0.25. Consider DFPM, for which the enrichment ratio is at most 0.25. With ITNY, the enrichment ratio is at most 0.25. To LTNQ belongs at most 0.25; to AWAS, at most 0.25; to IPAP, at most 0.25.

For the variant TPCS, the enrichment ratio is at most 0.25. As for PERP, the figure is at most 0.25; as for SIMN, 11. Consider LSIR, for which the enrichment ratio was at most 0.25. As for YYQH, the figure is at most 0.25; as for CAII, at most 0.25; as for GNVC, 11.6. To HPDD belongs at most 0.25; to WQIH, at most 0.25. To FLVI belongs at most 0.25; to NHHE, at most 0.25; to TKLN, 8.35. RKKT: the enrichment ratio is at most 0.25. As for EYTI, the figure is at most 0.25; as for VKYT, at most 0.25; as for WMST, at most 0.25. As for TFDC, the figure is at most 0.25.

On to QVLR, for which the enrichment ratio was at most 0.25. To GGGG belongs at most 0.25; to AFIF, at most 0.25. To SEGS belongs 4.52; to DMAY, at most 0.25; to TWPM, at most 0.25. For IPHF, the enrichment ratio was at most 0.25. With MFTP, the enrichment ratio was at most 0.25. As for ADGI, the figure is at most 0.25; as for PNWT, at most 0.25; as for INCR, at most 0.25. On to HMFN, for which the enrichment ratio was at most 0.25. Consider PHNP, for which the enrichment ratio is at most 0.25.

The values are drawn from a collection of fitness landscapes (doi:10.1126/science.1257360).
